# Measurements from the supplement of paper PMC8728848.
# The list shows a part of the results.
# B1: Microvirin-2 (Microcystis aeruginosa) (protein)
# chain: MPNFSHTCSSINYDPDSTILSAECQARDGEWLPTELRLSDHIGNIDGELQFGDQNFQETCQDCHLEFGDGEQSVWLVCTCQTMDGEWKSTQILLDSQIDNNDSQLEIGGSMPNFSHTCSSINYDPDSTILSAECQARDGEWLPTELRLSDHIGNIDGELQFGDQNFQETCQDCHLEFGDGEQSVWLVCTCQTMDGEWKSTQILLDSQIDNNDSQLEIG
# Columns and labels:
# Test in all cases: glycan array binding signal (z-score within array); higher = stronger binding
# Conditions in all cases: glycan notation: IUPAC condensed, linker removed
# [1] = biological target: Neu5Ac(a2-3)Gal(b1-3)GalNAc
# Procedure, shortened: (§1)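 Negative Z-scores can be read as non-binding. The Z-score is calculated within each array and then averaged across arrays of one protein sequence at different concentrations or buffers and across linkers. Arrays, 3228 in all, were curated from the Consortium for Functional Glycomics database and kept only where the protein sequence was available.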
# [2] = biological target: Neu5Ac(a2-3)Gal(b1-3)GalNAc(b1-3)Gal(a1-4)Gal(b1-4)Glc
# Procedure, shortened: as §1
# [3] = biological target: Neu5Ac(a2-3)Gal(b1-3)GalNAc(b1-4)[Neu5Ac(a2-3)]Gal(b1-4)Glc
# Procedure, shortened: as §1
# [4] = biological target: Neu5Ac(a2-3)Gal(b1-3)GalNAc(b1-4)[Neu5Ac(a2-8)Neu5Ac(a2-3)]Gal(b1-4)Glc
# Procedure, shortened: as §1
# [5] = biological target: Neu5Ac(a2-3)Gal(b1-3)GalNAc6S
# Procedure, shortened: as §1
# [6] = biological target: Neu5Ac(a2-3)Gal(b1-3)GlcNAc
# Procedure, shortened: as §1
# [7] = biological target: Neu5Ac(a2-3)Gal(b1-3)GlcNAc(b1-2)Man
# Procedure, shortened: as §1
# [8] = biological target: Neu5Ac(a2-3)Gal(b1-3)GlcNAc(b1-2)Man(a1-3)[GlcNAc(b1-4)][Neu5Ac(a2-3)Gal(b1-3)GlcNAc(b1-2)Man(a1-6)]Man(b1-4)GlcNAc(b1-4)GlcNAc
# Procedure, shortened: as §1
# [9] = biological target: Neu5Ac(a2-3)Gal(b1-3)GlcNAc(b1-2)Man(a1-3)[Neu5Ac(a2-3)Gal(b1-3)GlcNAc(b1-2)Man(a1-6)]Man(b1-4)GlcNAc(b1-4)GlcNAc
# Procedure, shortened: as §1
# [10] = biological target: Neu5Ac(a2-3)Gal(b1-3)GlcNAc(b1-3)Gal(b1-3)GlcNAc
# Procedure, shortened: as §1
# [11] = biological target: Neu5Ac(a2-3)Gal(b1-3)GlcNAc(b1-3)Gal(b1-4)GlcNAc
# Procedure, shortened: as §1
# [12] = biological target: Neu5Ac(a2-3)Gal(b1-3)GlcNAc(b1-3)GalNAc
# Procedure, shortened: as §1
# [13] = biological target: Neu5Ac(a2-3)Gal(b1-3)GlcNAc(b1-4)Gal(b1-4)Glc
# Procedure, shortened: as §1
# [14] = biological target: Neu5Ac(a2-3)Gal(b1-3)GlcNAc(b1-6)GalNAc
# Procedure, shortened: as §1
# [15] = biological target: Neu5Ac(a2-3)Gal(b1-3)GlcNAc6S
# Procedure, shortened: as §1
# [16] = biological target: Neu5Ac(a2-3)Gal(b1-3)[Fuc(a1-4)]GlcNAc
# Procedure, shortened: as §1
# [17] = biological target: Neu5Ac(a2-3)Gal(b1-3)[Fuc(a1-4)]GlcNAc(b1-3)Gal(b1-3)[Fuc(a1-4)]GlcNAc
# Procedure, shortened: as §1
# [18] = biological target: Neu5Ac(a2-3)Gal(b1-3)[Fuc(a1-4)]GlcNAc(b1-3)Gal(b1-4)[Fuc(a1-3)]GlcNAc
# Procedure, shortened: as §1
# [19] = biological target: Neu5Ac(a2-3)Gal(b1-3)[GlcNAc(b1-6)]GalNAc
# Procedure, shortened: as §1
# [20] = biological target: Neu5Ac(a2-3)Gal(b1-3)[Neu5Ac(a2-6)]GalNAc
# Procedure, shortened: as §1
# [21] = biological target: Neu5Ac(a2-3)Gal(b1-3)[Neu5Ac(a2-6)]GlcNAc(b1-3)[Fuc(a1-3)[Gal(b1-4)]GlcNAc(b1-6)]Gal(b1-4)Glc
# Procedure, shortened: as §1
# [22] = biological target: Neu5Ac(a2-3)Gal(b1-3)]Neu5Ac(a2-3)Gal(b1-4)]GlcNAc
# Procedure, shortened: as §1
# Neu5Ac(a2-3)Gal(b1-4)Glc = biological target: Neu5Ac(a2-3)Gal(b1-4)Glc
# Procedure, shortened: as §1
# [23] = biological target: Neu5Ac(a2-3)Gal(b1-4)GlcNAc
# Procedure, shortened: as §1
# [24] = biological target: Neu5Ac(a2-3)Gal(b1-4)GlcNAc(b1-2)Man
# Procedure, shortened: as §1
# [25] = biological target: Neu5Ac(a2-3)Gal(b1-4)GlcNAc(b1-2)Man(a1-3)[GlcNAc(b1-4)][Neu5Ac(a2-3)Gal(b1-4)GlcNAc(b1-2)Man(a1-6)]Man(b1-4)GlcNAc(b1-4)GlcNAc
# Procedure, shortened: as §1
# [26] = biological target: Neu5Ac(a2-3)Gal(b1-4)GlcNAc(b1-2)Man(a1-3)[Neu5Ac(a2-3)Gal(b1-4)GlcNAc(b1-2)Man(a1-6)]Man(b1-4)GlcNAc(b1-4)GlcNAc
# Procedure, shortened: as §1
# [27] = biological target: Neu5Ac(a2-3)Gal(b1-4)GlcNAc(b1-2)Man(a1-3)[Neu5Ac(a2-3)Gal(b1-4)GlcNAc(b1-2)Man(a1-6)]Man(b1-4)GlcNAc(b1-4)[Fuc(a1-6)]GlcNAc
# Procedure, shortened: as §1
# [28] = biological target: Neu5Ac(a2-3)Gal(b1-4)GlcNAc(b1-2)Man(a1-3)[Neu5Ac(a2-6)Gal(b1-4)GlcNAc(b1-2)Man(a1-6)]Man(b1-4)GlcNAc(b1-4)GlcNAc
# Procedure, shortened: as §1
# [29] = biological target: Neu5Ac(a2-3)Gal(b1-4)GlcNAc(b1-2)[Neu5Ac(a2-3)Gal(b1-4)GlcNAc(b1-4)]Man(a1-3)[GlcNAc(b1-4)][Neu5Ac(a2-3)Gal(b1-4)GlcNAc(b1-2)[Neu5Ac(a2-3)Gal(b1-4)GlcNAc(b1-6)]Man(a1-6)]Man(b1-4)GlcNAc(b1-4)GlcNAc
# Procedure, shortened: as §1
# [30] = biological target: Neu5Ac(a2-3)Gal(b1-4)GlcNAc(b1-2)[Neu5Ac(a2-3)Gal(b1-4)GlcNAc(b1-4)]Man(a1-3)[GlcNAc(b1-4)][Neu5Ac(a2-3)Gal(b1-4)GlcNAc(b1-4)Man(a1-6)]Man(b1-4)GlcNAc(b1-4)GlcNAc
# Procedure, shortened: as §1
# [31] = biological target: Neu5Ac(a2-3)Gal(b1-4)GlcNAc(b1-2)[Neu5Ac(a2-3)Gal(b1-4)GlcNAc(b1-6)]Man(a1-6)[Neu5Ac(a2-3)Gal(b1-4)GlcNAc(b1-2)Man(a1-3)]Man(b1-4)GlcNAc(b1-4)GlcNAc
# Procedure, shortened: as §1
# [32] = biological target: Neu5Ac(a2-3)Gal(b1-4)GlcNAc(b1-2)[Neu5Ac(a2-3)Gal(b1-4)GlcNAc(b1-6)]Man(a1-6)[Neu5Ac(a2-3)Gal(b1-4)GlcNAc(b1-2)Man(a1-3)][GlcNAc(b1-4)]Man(b1-4)GlcNAc(b1-4)GlcNAc
# Procedure, shortened: as §1
# [33] = biological target: Neu5Ac(a2-3)Gal(b1-4)GlcNAc(b1-3)Gal
# Procedure, shortened: as §1
# [34] = biological target: Neu5Ac(a2-3)Gal(b1-4)GlcNAc(b1-3)Gal(b1-3)GlcNAc
# Procedure, shortened: as §1
# [35] = biological target: Neu5Ac(a2-3)Gal(b1-4)GlcNAc(b1-3)Gal(b1-4)GlcNAc
# Procedure, shortened: as §1
# [36] = biological target: Neu5Ac(a2-3)Gal(b1-4)GlcNAc(b1-3)Gal(b1-4)GlcNAc(b1-2)Man(a1-3)[Neu5Ac(a2-3)Gal(b1-4)GlcNAc(b1-3)Gal(b1-4)GlcNAc(b1-2)Man(a1-6)]Man(b1-4)GlcNAc(b1-4)GlcNAc
# Procedure, shortened: as §1
# [37] = biological target: Neu5Ac(a2-3)Gal(b1-4)GlcNAc(b1-3)Gal(b1-4)GlcNAc(b1-3)Gal(b1-4)GlcNAc
# Procedure, shortened: as §1
# [38] = biological target: Neu5Ac(a2-3)Gal(b1-4)GlcNAc(b1-3)Gal(b1-4)GlcNAc(b1-3)Gal(b1-4)GlcNAc(b1-2)Man(a1-3)[Neu5Ac(a2-3)Gal(b1-4)GlcNAc(b1-3)Gal(b1-4)GlcNAc(b1-3)Gal(b1-4)GlcNAc(b1-2)Man(a1-6)]GalNAc
# Procedure, shortened: as §1
# [39] = biological target: Neu5Ac(a2-3)Gal(b1-4)GlcNAc(b1-3)Gal(b1-4)GlcNAc(b1-3)GalNAc
# Procedure, shortened: as §1
# [40] = biological target: Neu5Ac(a2-3)Gal(b1-4)GlcNAc(b1-3)Gal(b1-4)GlcNAc(b1-3)[Neu5Ac(a2-3)Gal(b1-4)GlcNAc(b1-3)Gal(b1-4)GlcNAc(b1-6)]GalNAc
# Procedure, shortened: as §1
# [41] = biological target: Neu5Ac(a2-3)Gal(b1-4)GlcNAc(b1-3)Gal(b1-4)GlcNAc(b1-6)[Gal(b1-3)]GalNAc
# Procedure, shortened: as §1
# [42] = biological target: Neu5Ac(a2-3)Gal(b1-4)GlcNAc(b1-3)Gal(b1-4)[Fuc(a1-3)]GlcNAc
# Procedure, shortened: as §1
# [43] = biological target: Neu5Ac(a2-3)Gal(b1-4)GlcNAc(b1-3)GalNAc
# Procedure, shortened: as §1
# [44] = biological target: Neu5Ac(a2-3)Gal(b1-4)GlcNAc(b1-3)[Neu5Ac(a2-3)Gal(b1-4)GlcNAc(b1-6)]GalNAc
# Procedure, shortened: as §1
binder,measurement,setting,value
B1,glycan array binding signal (z-score),[1],-0.139
same,glycan array binding signal (z-score),[2],-0.125
same,glycan array binding signal (z-score),[3],-0.135
same,glycan array binding signal (z-score),[4],-0.12
same,glycan array binding signal (z-score),[5],-0.141
same,glycan array binding signal (z-score),[6],-0.143
same,glycan array binding signal (z-score),[7],-0.082
same,glycan array binding signal (z-score),[8],-0.115
same,glycan array binding signal (z-score),[9],-0.096
same,glycan array binding signal (z-score),[10],-0.136
same,glycan array binding signal (z-score),[11],-0.131
same,glycan array binding signal (z-score),[12],-0.128
same,glycan array binding signal (z-score),[13],-0.114
same,glycan array binding signal (z-score),[14],-0.127
same,glycan array binding signal (z-score),[15],-0.117
same,glycan array binding signal (z-score),[16],-0.143
same,glycan array binding signal (z-score),[17],-0.084
same,glycan array binding signal (z-score),[18],-0.048
same,glycan array binding signal (z-score),[19],-0.131
same,glycan array binding signal (z-score),[20],-0.108
same,glycan array binding signal (z-score),[21],-0.128
same,glycan array binding signal (z-score),[22],-0.137
same,glycan array binding signal (z-score),Neu5Ac(a2-3)Gal(b1-4)Glc,-0.134
same,glycan array binding signal (z-score),[23],-0.128
same,glycan array binding signal (z-score),[24],0.072
same,glycan array binding signal (z-score),[25],-0.146
same,glycan array binding signal (z-score),[26],-0.14
same,glycan array binding signal (z-score),[27],-0.139
same,glycan array binding signal (z-score),[28],-0.142
same,glycan array binding signal (z-score),[29],-0.136
same,glycan array binding signal (z-score),[30],-0.132
same,glycan array binding signal (z-score),[31],-0.102
same,glycan array binding signal (z-score),[32],-0.147
same,glycan array binding signal (z-score),[33],-0.144
same,glycan array binding signal (z-score),[34],-0.143
same,glycan array binding signal (z-score),[35],-0.145
same,glycan array binding signal (z-score),[36],0.005
same,glycan array binding signal (z-score),[37],-0.142
same,glycan array binding signal (z-score),[38],0.074
same,glycan array binding signal (z-score),[39],-0.139
same,glycan array binding signal (z-score),[40],-0.105
same,glycan array binding signal (z-score),[41],-0.115
same,glycan array binding signal (z-score),[42],-0.137
same,glycan array binding signal (z-score),[43],-0.136
same,glycan array binding signal (z-score),[44],-0.144
